Laboratory results published in patent US8268778B2, “Flavivirus NS5A proteins for the treatment of HIV” (priority 2007, dated 2012).

Tested on: HIV-1 isolate (X4)
Type: cell-based
Conditions: unmodified synthetic 16mer peptides added to cells (cell line not stated) 24 hrs prior to HIV infection, up to 50 ug/mL; data not shown

For VDGIPVEWDADARAPA [S158E], the HIV replication was “Neither peptide inhibited HIV replication”.
